# A collection of fitness landscapes (doi:10.1126/science.1257360)
# Some of the results follow.
# B1: PhoQ; a variant is named by its letters at X, in order, P23837 (parent)
# chain: MKKLLRLFFPLSLRVRFLLATAAVVLVLSLAYGMVALIGYSVSFDKTTFRLLRGESNLFYTLAKWENNKLHVELPENIDKQSPTMTLIYDENGQLLWAQRDVPWLMKMIQPDWLKSNGFHEIEADVNDTSLLLSGDHSIQQQLQEVREDDDDAEMTHSVAVNVYPATSRMPKLTIVVVDTIPVELKSSYMVWSWFIYVLSANLLLVIPLLWVAAWWSLRPIEALAKEVRELEEHNRELLNPATTRELTSLVRNLNRLLKSERERYDKYRTTLTDLTHSLKTPLXXLQXXLRSLRSEKMSVSDAEPVMLEQISRISQQIGYYLHRASMRGGTLLSRELHPVAPLLDNLTSALNKVYQRKGVNISLDISPEISFVGEQNDFVEVMGNVLDNACKYCLEFVEISARQTDEHLYIVVEDDGPGIPLSKREVIFDRGQRVDTLRPGQGVGLAVAREITEQYEGKIVAGESMLGGARMEVIFGRQHSAPKDE
# Variants of: B1
# Experiment: enrichment ratio after two sorts for PhoP signalling (ratio (wild type AVST 3.29)); higher = more functional
# Conditions: with PhoP (E. coli)
row,Variant,enrichment ratio
1,KPLT,≤ 0.25
2,HHSR,≤ 0.25
3,HMRN,≤ 0.25
4,DVMR,≤ 0.25
5,MDGS,≤ 0.25
6,RETN,≤ 0.25
7,SHRS,≤ 0.25
8,FACN,≤ 0.25
9,AWYN,≤ 0.25
10,VVAN,≤ 0.25
11,DHMV,≤ 0.25
12,VRAA,≤ 0.25
13,LWLI,≤ 0.25
14,TNDA,≤ 0.25
15,SRSS,≤ 0.25
16,LGCN,≤ 0.25
17,GPIV,≤ 0.25
18,STTF,9.59
19,LPWL,≤ 0.25
20,TEYD,≤ 0.25
21,FMCP,≤ 0.25
22,HSWT,≤ 0.25
23,RRNM,≤ 0.25
24,QCTV,≤ 0.25

row,Variant,enrichment ratio
1,HREP,≤ 0.25
2,STVE,3.69
3,NYVD,≤ 0.25
4,AGWY,≤ 0.25
5,PCKE,≤ 0.25
6,RDIS,≤ 0.25
7,GWKC,≤ 0.25
8,YSDD,≤ 0.25
9,PHNG,≤ 0.25
10,YSIS,≤ 0.25
11,KVQH,≤ 0.25
12,VWRQ,≤ 0.25
13,ISHK,≤ 0.25
14,RVCH,≤ 0.25
15,FSWY,≤ 0.25
16,ILWC,≤ 0.25
17,ETLG,≤ 0.25
18,QQVW,≤ 0.25
19,MPRK,≤ 0.25
20,WYEW,≤ 0.25
21,IFAG,≤ 0.25
22,HHWQ,≤ 0.25
23,RTKL,≤ 0.25
24,LREA,≤ 0.25

row,Variant,enrichment ratio
1,AHLN,≤ 0.25
2,TSCW,3.22
3,YGVF,≤ 0.25
4,TENP,≤ 0.25
5,VDFL,≤ 0.25
6,WLCM,≤ 0.25
7,KHTH,≤ 0.25
8,NAHA,≤ 0.25
9,TWVY,≤ 0.25
10,RLGT,≤ 0.25
11,KCFP,≤ 0.25
12,LPYR,≤ 0.25
13,SVCG,13.3
14,VNEG,≤ 0.25
15,FSAG,0.864
16,IAPC,≤ 0.25
17,DITK,≤ 0.25
18,PGRD,≤ 0.25
19,LLTM,≤ 0.25
20,FPKP,≤ 0.25
21,MLRC,≤ 0.25
22,HEHQ,≤ 0.25
23,PDQI,≤ 0.25
24,SFHD,≤ 0.25

row,Variant,enrichment ratio
1,WSKC,≤ 0.25
2,HVGP,≤ 0.25
3,HMPW,≤ 0.25
4,SDKI,≤ 0.25
5,DETT,≤ 0.25
6,VCKE,≤ 0.25
7,NTKR,≤ 0.25
8,FNFW,≤ 0.25
9,YVMQ,≤ 0.25
10,QPHD,≤ 0.25
11,FHTR,≤ 0.25
12,PCGQ,≤ 0.25
13,SRDC,≤ 0.25
14,QCFC,≤ 0.25
15,WYCF,≤ 0.25
16,SELT,20.5
17,DGYG,≤ 0.25
18,LALN,3.27
19,VPQG,≤ 0.25
20,KPQG,≤ 0.25
21,DQQE,≤ 0.25
22,WNYM,≤ 0.25
23,MAHE,≤ 0.25
24,ILRF,≤ 0.25

row,Variant,enrichment ratio
1,FWFV,0.357
2,TARV,≤ 0.25
3,GFTT,≤ 0.25
4,YTRG,≤ 0.25
5,EMYL,≤ 0.25
6,QLRL,≤ 0.25
7,LTDR,≤ 0.25
8,WHWG,≤ 0.25
9,HYEY,≤ 0.25
10,PLEG,≤ 0.25
11,RQMI,≤ 0.25
12,DDWM,≤ 0.25
13,TGRH,≤ 0.25
14,MEFY,≤ 0.25
15,LVCK,≤ 0.25
16,MAKR,≤ 0.25
17,VMVY,≤ 0.25
18,LREN,≤ 0.25
19,YWYW,≤ 0.25
20,LSLF,≤ 0.25
21,AIIE,≤ 0.25
22,YLWH,≤ 0.25
23,QPTF,≤ 0.25
24,DDSK,≤ 0.25

row,Variant,enrichment ratio
1,VHES,≤ 0.25
2,HYHN,≤ 0.25
3,GCMI,≤ 0.25
4,HDAG,≤ 0.25
5,NQDE,≤ 0.25
6,DAWQ,≤ 0.25
7,CLSR,≤ 0.25
8,IHMW,≤ 0.25
9,DGRY,≤ 0.25
10,YVSA,0.277
11,SAWY,≤ 0.25
12,FFLA,≤ 0.25
13,SHAY,2.01
14,LFQN,≤ 0.25
15,QTNW,≤ 0.25
16,AEGH,12.9
17,LQND,≤ 0.25
18,LDYP,≤ 0.25
19,WPHQ,≤ 0.25
20,ATPM,0.758
21,HEVY,≤ 0.25
22,SWGH,≤ 0.25
23,MAIL,5.5
24,FADR,≤ 0.25

row,Variant,enrichment ratio
1,TWHP,≤ 0.25
2,IPWC,≤ 0.25
3,VCKM,≤ 0.25
4,PRFK,≤ 0.25
5,WPTQ,≤ 0.25
6,HWMV,≤ 0.25
7,KHYF,≤ 0.25
8,TTEE,≤ 0.25
9,IEDD,≤ 0.25
10,LRNT,≤ 0.25
11,WVNL,≤ 0.25
12,NMVN,≤ 0.25
13,VSYC,≤ 0.25
14,NRWW,≤ 0.25
15,RWCK,≤ 0.25
16,VDFK,≤ 0.25
17,PDMM,≤ 0.25
18,HQAG,≤ 0.25
19,PNTP,≤ 0.25
20,DSMQ,≤ 0.25
21,EVLP,≤ 0.25
22,PNFT,≤ 0.25
23,IFRW,≤ 0.25
24,ECPK,≤ 0.25

row,Variant,enrichment ratio
1,DEIT,≤ 0.25
2,ITID,≤ 0.25
3,DPGF,≤ 0.25
4,ANFF,≤ 0.25
5,SDEW,≤ 0.25
6,QCRN,0.978
7,PIVQ,≤ 0.25
8,LAVF,≤ 0.25
9,DMMP,≤ 0.25
10,FYFQ,≤ 0.25
11,NNCA,≤ 0.25
12,EKQW,≤ 0.25
13,NYFP,≤ 0.25
14,LKYY,≤ 0.25
15,MYIQ,≤ 0.25
16,WIGP,≤ 0.25
17,EAAN,≤ 0.25
18,YGPQ,≤ 0.25
19,RYEK,≤ 0.25
20,GRTY,≤ 0.25
21,SQGP,≤ 0.25
22,YAFP,≤ 0.25
23,FLEP,≤ 0.25
24,MFVK,≤ 0.25

row,Variant,enrichment ratio
1,QKQG,≤ 0.25
2,ACYQ,≤ 0.25
3,SHCQ,21.1
4,VVIG,≤ 0.25
5,PIHT,≤ 0.25
6,IMES,≤ 0.25
7,MNGF,3.05
8,ILSS,≤ 0.25
9,KAQQ,≤ 0.25
10,MPEC,≤ 0.25
11,WGDD,≤ 0.25
12,GRKH,≤ 0.25
13,WTPI,≤ 0.25
14,LGFS,≤ 0.25
15,KCNL,≤ 0.25
16,IQVV,≤ 0.25
17,DFEC,≤ 0.25
18,EMAR,≤ 0.25
19,YRPY,≤ 0.25
20,CEIH,≤ 0.25
21,VAWR,≤ 0.25
22,VGLV,12.3
23,NDKS,≤ 0.25
24,QNTV,≤ 0.25

row,Variant,enrichment ratio
1,PWFC,≤ 0.25
2,HDPR,≤ 0.25
3,YHQH,≤ 0.25
4,SMDN,≤ 0.25
5,GSSN,≤ 0.25
6,HRKR,≤ 0.25
7,GIAQ,≤ 0.25
8,HQNM,≤ 0.25
9,RMEY,≤ 0.25
10,FEQP,≤ 0.25
11,HFTC,≤ 0.25
12,SRRK,≤ 0.25
13,SAHF,≤ 0.25
14,VETL,≤ 0.25
15,SHGK,≤ 0.25
16,DSGM,≤ 0.25
17,MVTQ,≤ 0.25
18,SGAL,10.6
19,DQKS,≤ 0.25
20,PSKE,≤ 0.25
21,NGRG,≤ 0.25
22,DNSK,≤ 0.25
23,NMTY,≤ 0.25
24,QTTV,≤ 0.25

row,Variant,enrichment ratio
1,EMNI,≤ 0.25
2,GYDT,≤ 0.25
3,VVSN,≤ 0.25
4,ITFW,≤ 0.25
5,DLSC,≤ 0.25
6,WIPV,≤ 0.25
7,QHTA,≤ 0.25
8,GMFS,≤ 0.25
9,KSFN,≤ 0.25
10,ANWW,≤ 0.25
11,VNEL,≤ 0.25
12,APRH,≤ 0.25
13,VRPI,≤ 0.25
14,WNAY,≤ 0.25
15,EYEW,≤ 0.25
16,RQHC,≤ 0.25
17,GIGQ,≤ 0.25
18,RLLS,≤ 0.25
19,NHPL,≤ 0.25
20,DDPT,≤ 0.25
21,RGCL,≤ 0.25
22,VHWV,≤ 0.25
23,ERDC,≤ 0.25
24,GFVN,≤ 0.25

row,Variant,enrichment ratio
1,ACIE,≤ 0.25
2,FHMH,≤ 0.25
3,KYVQ,≤ 0.25
4,LKYV,≤ 0.25
5,WIRR,≤ 0.25
6,SPRK,≤ 0.25
7,DEKF,≤ 0.25
8,DNAK,≤ 0.25
9,AFGI,≤ 0.25
10,DPIM,≤ 0.25
11,QQTN,≤ 0.25
12,YQHA,≤ 0.25
13,DIGV,≤ 0.25
14,LTFW,≤ 0.25
15,IYYQ,≤ 0.25
16,SGAC,10.1
17,PAMC,≤ 0.25
18,WYCP,≤ 0.25
19,QEIS,≤ 0.25
20,DFDN,≤ 0.25
21,MMAP,≤ 0.25
22,SQAQ,2.89
23,LNSM,0.463
24,VINT,≤ 0.25

row,Variant,enrichment ratio
1,HPYG,≤ 0.25
2,WYKL,≤ 0.25
3,YGRE,≤ 0.25
4,MTMY,≤ 0.25
5,RMAH,≤ 0.25
6,LHTA,≤ 0.25
7,MRKT,≤ 0.25
8,LFVP,≤ 0.25
9,IGKG,≤ 0.25
10,GTMW,≤ 0.25
11,APYK,≤ 0.25
12,SREH,≤ 0.25
13,QGCC,≤ 0.25
14,RHFG,≤ 0.25
15,LLHK,≤ 0.25
16,SLRL,≤ 0.25
17,FIYL,≤ 0.25
18,FSHD,≤ 0.25
